Structures are written as SMILES. The whole screen tested about 310,000 compounds, of which about 14,000 (4.5%) showed an effect of 50% or more. The effect is printed as a negative number. The list shows a part of the results.
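Further: peak tail current of the secondary pulse compared with the same well before compound.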

For the assay, the target named is human ether-à-go-go-related gene (hERG) potassium channel (human, UniProt Q12809). Nature of the assay: primary screen, population patch clamp on CHO cells stably expressing hERG.
Sequence of human ether-à-go-go-related gene (hERG) potassium channel (Q12809 whole entry, looked up): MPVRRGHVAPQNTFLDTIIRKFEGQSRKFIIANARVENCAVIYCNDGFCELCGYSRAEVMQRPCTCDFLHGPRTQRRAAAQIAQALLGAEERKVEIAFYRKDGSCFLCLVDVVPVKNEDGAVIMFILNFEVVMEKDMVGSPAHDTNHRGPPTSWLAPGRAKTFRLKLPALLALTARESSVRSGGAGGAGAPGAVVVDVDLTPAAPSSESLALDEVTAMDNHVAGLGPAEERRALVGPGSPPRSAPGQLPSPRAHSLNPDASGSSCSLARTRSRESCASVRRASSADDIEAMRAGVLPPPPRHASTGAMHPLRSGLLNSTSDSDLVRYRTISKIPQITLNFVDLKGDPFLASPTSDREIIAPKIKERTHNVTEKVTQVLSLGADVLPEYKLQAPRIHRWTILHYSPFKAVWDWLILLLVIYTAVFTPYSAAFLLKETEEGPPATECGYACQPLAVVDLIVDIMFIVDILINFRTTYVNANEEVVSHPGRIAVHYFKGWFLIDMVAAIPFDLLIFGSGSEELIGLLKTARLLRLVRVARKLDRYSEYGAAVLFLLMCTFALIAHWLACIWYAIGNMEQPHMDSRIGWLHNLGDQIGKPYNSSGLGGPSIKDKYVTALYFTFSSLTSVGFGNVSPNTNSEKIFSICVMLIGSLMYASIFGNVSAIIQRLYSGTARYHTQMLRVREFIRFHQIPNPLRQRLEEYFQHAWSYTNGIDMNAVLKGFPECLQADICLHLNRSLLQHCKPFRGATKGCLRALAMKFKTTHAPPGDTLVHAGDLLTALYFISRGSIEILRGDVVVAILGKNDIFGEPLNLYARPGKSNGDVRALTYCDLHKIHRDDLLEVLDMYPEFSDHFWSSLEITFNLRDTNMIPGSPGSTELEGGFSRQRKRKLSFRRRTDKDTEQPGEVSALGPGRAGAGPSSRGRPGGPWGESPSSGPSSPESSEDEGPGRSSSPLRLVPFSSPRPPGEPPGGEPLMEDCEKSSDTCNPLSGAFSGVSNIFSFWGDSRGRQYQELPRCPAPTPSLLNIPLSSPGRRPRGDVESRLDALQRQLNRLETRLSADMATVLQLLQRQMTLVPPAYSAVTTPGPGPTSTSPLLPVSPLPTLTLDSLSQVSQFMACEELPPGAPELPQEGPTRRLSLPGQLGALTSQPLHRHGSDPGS
As to `CCCCCCn1c(SCCC)nc2c1c(=O)[nH]c(=O)n2C`, the “hERG current change (%, negative = inhibition) at 10uM” value was -9.85%.
For `O=S(Cc1cc(Sc2ccccc2)nc(-c2ccccc2)n1)c1ccccc1` (stereo not shown) the value was 10.7%; for `CCCCn1c(O)c(C(=O)/C=C/c2ccc3c(c2)OCO3)c(=O)[nH]c1=O`, 8.55%.
For `O=C(Cn1ccc(C(F)(F)F)n1)NNC(=O)c1ccco1` the value was 8.94%; for `COc1cc(-c2nnc(NC(=O)CCS(=O)(=O)c3ccc(F)cc3)o2)cc(OC)c1OC`, 6.48%; for `Cc1nc(SCn2nnc3ccccc3c2=O)nc(C)c1C`, -12.3%.
Regarding `CC(C)[C@H](NC(=O)c1ccccc1Br)C(=O)OCc1nc2ccsc2c(=O)[nH]1`, the “hERG current change (%, negative = inhibition) at 10uM” value was -30.8%.
Regarding `NC(N)=O`, the “hERG current change (%, negative = inhibition) at 10uM” value turned out to be 16%.
As for `O=C(OCc1ccc2c(c1)OCO2)c1cccc(S(=O)(=O)N2CCCCC2)c1`, the figure is -6.15%; as for `C=CCn1c(SCC(=O)Nc2ccccc2C)nc(O)cc1=O`, 5.99%; as for `Cc1ccc(NC(=O)c2cccc(S(=O)(=O)N3CCN(c4ccccc4)CC3)c2)nc1`, -1.19%.
As for `Cc1cc(C)cc(Nc2ncc3c(n2)CC(c2ccco2)CC3=O)c1` (stereo not shown), the figure is -23.3%; as for `C(=C\c1nc2ccccc2[nH]1)/c1ccccc1`, -31.2%; as for `COc1ccccc1/C=N/NC(=O)c1ccc(C)nc1`, 13.4%.
As for `CC1(C)CC(=O)C2=C(C1)Nc1ccccc1NC2c1cccs1` (stereo not shown), the figure is 5.74%; as for `COc1ccc(CNC(=O)CCn2c(=O)oc3ccccc32)c(OC)c1`, 0.0303%.
As for `Cc1ccc(C)c(NC(=O)COC(=O)CNC(=O)c2ccccc2Cl)c1`, the “hERG current change (%, negative = inhibition) at 10uM” value is 8.05%.
For `COc1ccc(Sc2nnc(-c3ccccc3)cc2C#N)cc1` the value was 17.5%; for `CCn1c(C)nc2c(=O)oc3ccccc3c21`, -9.57%.
Consider `Cc1ccc(Oc2ccccc2NC(=O)CN2C(=O)NC3(CCCC3)C2=O)cc1`, for which the “hERG current change (%, negative = inhibition) at 10uM” value was 11%.
For `COc1cccc(C(=O)N(Cc2nc(-c3cccc(C)c3)no2)C(C)C)c1OC` the value was -4.61%.
For `Cc1nnc(SCC(=O)Nc2ccc3c(c2)COC3=O)n1-c1ccccc1` the value was -10.1%.
For `COc1ccccc1NC(=O)C1=C(C)NC2=C(C(=O)CC(c3ccc(OC)c(OC)c3)C2)C1c1coc2ccccc2c1=O` (stereo not shown) the value was -0.338%; for `C=CCc1cccc(C=Nc2ccc(Br)cc2)c1O`, -4.96%.
`COc1ccc([C@H](OC)[C@@]2(Cc3ccc(O)cc3)N=C(N)N(C)C2=O)cc1`: the “hERG current change (%, negative = inhibition) at 10uM” value turned out to be 4.5%.
